Source: PubChem BioAssay AID504333 (National Center for Advancing Translational Sciences (NCATS), 2011)
Several values for one entry are separate records, joined by “and”; a condition that tells them apart may be missing. Equal entries are not always repeated. About 16,000 (4.4%) of roughly 360,000 compounds were called active. The shares of active, inactive and inconclusive entries below differ from those in the screen. Calls come from the whole dose curve; as a rule, active = well fitted inhibition curve with a large enough effect; inconclusive = small, poorly fitted or top-dose-only effect; inactive = no such curve, though single readings can be large or run the other way. Where the call is inconclusive, the potency comes from a doubtful curve fit.

Target: Bromodomain adjacent to zinc finger domain protein 2B (Homo sapiens) (UniProt Q9UIF8)
Test: qHTS Assay for Inhibitors of BAZ2B; note: nearly all actives have a fitted effect of over 60% in size
Conditions: AlphaScreen BAZ2B-H3K14Ac peptide displacement; activity change, negative = inhibition: at 114 µM (top of the series)
Method in brief: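 In this displacement format the biotinylated H3(5-23) peptide acetylated at Lys14 serves as ligand at 50 nM, with BAZ2B at 50 nM in PBS pH 7.4 containing 0.01% Tween-20. Donor and acceptor beads are 10 ug/mL final.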
% is set by controls: 0 for no effect and ±100 for the full control effect; potency is the fitted concentration of half-maximal effect; tags give direction and shape of the fitted curve.

UniProt Q9UIF8, sequence (Q9UIF8 whole entry, looked up, the tested form may be a part): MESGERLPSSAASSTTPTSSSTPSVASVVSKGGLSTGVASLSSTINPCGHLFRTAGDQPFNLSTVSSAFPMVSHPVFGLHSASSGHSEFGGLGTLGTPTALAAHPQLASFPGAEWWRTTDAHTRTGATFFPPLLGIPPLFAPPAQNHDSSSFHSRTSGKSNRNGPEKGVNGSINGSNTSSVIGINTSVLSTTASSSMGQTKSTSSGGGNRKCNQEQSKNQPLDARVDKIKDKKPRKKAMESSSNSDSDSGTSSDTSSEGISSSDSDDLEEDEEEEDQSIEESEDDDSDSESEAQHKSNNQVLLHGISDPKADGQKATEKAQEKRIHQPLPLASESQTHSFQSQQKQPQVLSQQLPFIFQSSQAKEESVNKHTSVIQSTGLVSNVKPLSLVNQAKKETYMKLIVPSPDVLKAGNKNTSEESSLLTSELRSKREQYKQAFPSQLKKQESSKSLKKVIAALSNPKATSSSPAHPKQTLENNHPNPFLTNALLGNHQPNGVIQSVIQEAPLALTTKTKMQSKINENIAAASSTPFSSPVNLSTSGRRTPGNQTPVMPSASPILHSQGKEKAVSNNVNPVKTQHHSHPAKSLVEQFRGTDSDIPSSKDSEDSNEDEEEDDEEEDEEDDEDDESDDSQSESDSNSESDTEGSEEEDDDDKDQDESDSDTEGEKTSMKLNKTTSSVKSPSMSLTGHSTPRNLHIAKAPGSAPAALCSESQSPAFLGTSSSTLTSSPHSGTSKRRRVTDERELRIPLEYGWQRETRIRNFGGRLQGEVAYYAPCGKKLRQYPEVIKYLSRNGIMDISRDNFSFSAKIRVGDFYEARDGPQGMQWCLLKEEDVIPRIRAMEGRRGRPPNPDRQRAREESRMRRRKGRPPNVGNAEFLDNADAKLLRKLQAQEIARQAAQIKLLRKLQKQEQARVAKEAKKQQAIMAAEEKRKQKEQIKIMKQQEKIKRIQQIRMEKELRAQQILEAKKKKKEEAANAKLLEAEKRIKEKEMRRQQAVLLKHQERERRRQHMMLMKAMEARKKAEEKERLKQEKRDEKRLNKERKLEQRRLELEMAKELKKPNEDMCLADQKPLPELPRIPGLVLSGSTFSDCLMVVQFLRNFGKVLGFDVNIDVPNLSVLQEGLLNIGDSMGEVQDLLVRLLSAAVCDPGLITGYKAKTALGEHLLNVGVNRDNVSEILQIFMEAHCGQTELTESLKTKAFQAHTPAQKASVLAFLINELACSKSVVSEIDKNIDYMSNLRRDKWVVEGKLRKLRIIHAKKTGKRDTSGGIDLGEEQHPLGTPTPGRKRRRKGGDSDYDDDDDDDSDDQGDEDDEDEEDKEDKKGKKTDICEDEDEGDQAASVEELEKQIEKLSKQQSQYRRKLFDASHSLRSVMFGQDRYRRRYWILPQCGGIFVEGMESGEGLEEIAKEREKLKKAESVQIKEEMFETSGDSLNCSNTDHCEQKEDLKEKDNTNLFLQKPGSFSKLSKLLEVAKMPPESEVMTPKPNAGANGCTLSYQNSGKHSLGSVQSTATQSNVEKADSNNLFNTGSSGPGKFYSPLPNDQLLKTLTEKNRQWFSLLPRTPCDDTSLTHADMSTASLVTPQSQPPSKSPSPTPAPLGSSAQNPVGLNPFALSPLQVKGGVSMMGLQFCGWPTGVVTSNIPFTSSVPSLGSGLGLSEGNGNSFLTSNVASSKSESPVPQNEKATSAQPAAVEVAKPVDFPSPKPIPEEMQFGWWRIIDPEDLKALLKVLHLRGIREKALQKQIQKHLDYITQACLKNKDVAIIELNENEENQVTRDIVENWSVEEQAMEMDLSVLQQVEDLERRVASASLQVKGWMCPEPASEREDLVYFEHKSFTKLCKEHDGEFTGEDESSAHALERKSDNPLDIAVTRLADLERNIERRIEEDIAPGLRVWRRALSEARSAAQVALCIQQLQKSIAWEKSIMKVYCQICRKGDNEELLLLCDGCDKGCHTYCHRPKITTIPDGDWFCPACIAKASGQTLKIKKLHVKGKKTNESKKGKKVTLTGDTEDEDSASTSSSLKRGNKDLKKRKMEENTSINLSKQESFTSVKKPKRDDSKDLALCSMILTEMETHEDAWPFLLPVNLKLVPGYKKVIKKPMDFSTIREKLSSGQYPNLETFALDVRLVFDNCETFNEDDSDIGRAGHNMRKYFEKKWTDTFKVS

Compound | Potency | activity change, negative = inhibition
O=C(CN1C(=O)S/C(=C\c2ccc(F)cc2)C1=O)NCCCn1ccnc1 | inconclusive: 79.4 µM [inhibitor, partial curve] | 
CNC(=O)C(=O)NCC1OCCN1S(=O)(=O)c1ccc2c(c1)OCCO2 (configuration not stated) |  | inactive: -13.7%
Cc1cc(C)cc(-n2cc(C(=O)O)c(=O)cc2C)c1 | active: 79.4 µM | 
Cc1ccc(-c2nc(CS(=O)CC(=O)N3CCN(c4ccccc4)CC3)c(C)o2)cc1 (configuration not stated) | inconclusive: 50.1 µM [inhibitor, partial curve] and inconclusive: 56.2 µM [inhibitor, partial curve] | 
Cc1cc(OCC(=O)NCC(O)c2ccccc2)c2c(C)cc(=O)oc2c1 (configuration not stated) |  | inactive: -3.25%
CC(C)c1ccc(C2/C(=C(\O)c3ccc4c(c3)OCCO4)C(=O)C(=O)N2CCN2CCOCC2)cc1 (configuration not stated) |  | inactive: -15.5% [at 57.1 µM]
CC(Oc1ccc2ccc(=O)oc2c1)C(=O)NCC1CCC(C(=O)O)CC1 (configuration not stated) | inconclusive: 89.1 µM [inhibitor, single point] | 
CCn1ccc(C(=O)Nc2cccc(Cl)c2)n1 |  | inactive: -6.03%
CCOc1ccccc1Oc1cn[nH]c1-c1ccc(O)cc1O | inconclusive: 70.8 µM [inhibitor, single point] | 
O=C1/C(=C/c2cccs2)SC(=S)N1NS(=O)(=O)c1ccccc1 | inconclusive: 56.2 µM [inhibitor, partial curve] | 
Oc1ccccc1CN1CCCC(N2CCN(c3cccc(C(F)(F)F)c3)CC2)C1 (configuration not stated) | inconclusive: 79.4 µM [inhibitor, single point] | 
O=C1OC(=O)c2cc([N+](=O)[O-])ccc21 | inconclusive: 79.4 µM [inhibitor, single point] | 
COc1ccc(NC(=O)CSc2c3c(nc4ccccc24)CCCC3)c(OC)c1 | inconclusive: 79.4 µM [inhibitor, single point] | 
Nc1nnc(SCC(=O)Nc2cccc(S(N)(=O)=O)c2)s1 |  | inactive: 0.7%
Fc1ccc(NC(=S)Nc2cccnc2)cc1Cl | inconclusive: 89.1 µM [inhibitor, single point] | 
Cc1cc[n+](-c2[nH]c(=O)sc2/C=N/N=C(\[O-])c2ccncc2)cc1 | active: 56.2 µM | 
CCCN1CCC2(CC1)NC(C(=O)O)Cc1c2[nH]c2ccccc12 (configuration not stated) | inconclusive: 56.2 µM [inhibitor, partial curve, poor fit] | 
COc1ccc(C(c2nnnn2Cc2cccs2)N2CCN(c3ccccc3)CC2)cc1OC (configuration not stated) |  | inactive: -35.7%
CC(Sc1ncnc2sc(-c3ccccc3)cc12)C(N)=O (configuration not stated) | active: 79.4 µM | 
CCOc1ccc2c(c1)C(C)=CC(C)(C)N2C(=O)Nc1ccccc1 | active: 50.1 µM | 
CCOc1cc(/C=N/NC(=O)CNc2cccc(C)c2)ccc1OC(=O)c1ccccc1 | inconclusive: 79.4 µM [inhibitor, partial curve] | 
COCC(C)OC(=O)C(C#N)c1nc2ccccc2nc1N1CCN(Cc2ccccc2)CC1 (configuration not stated) | inconclusive: 39.8 µM [inhibitor, full curve] | 
Cc1ccc(Cl)cc1NC(=O)CN(C)S(=O)(=O)c1ccc2c(c1)n(C)c(=O)c(=O)n2C |  | inactive: -10.9%
N#Cc1ccc(CSc2nnc(-c3ccccn3)n2-c2ccc(Cl)cc2)cc1 | active: 50.1 µM | 

Compound | Potency | activity change, negative = inhibition
COCC(C)N=C1NN=C(c2ccc(NC(C)=O)cc2)CS1 (configuration not stated) | inconclusive: 79.4 µM [inhibitor, single point] | 
Cc1ccc2nc(C(=O)O)c(C(=O)O)nc2c1 | inconclusive: 89.1 µM [inhibitor, single point] | 
Cn1c(=O)[nH]c(=O)c2c1nc1n(CCO)c(-c3ccccc3)cn21 |  | inactive: -3.33%
COc1cc(C)nc(N2CCC(C(=O)NC3CCCCC3)CC2)n1 | inconclusive: 11.2 µM [inhibitor, single point] | 
Cc1ccc(-c2nn(CC(=O)NC3CCCCC3)c3c2cnc2ccc(F)cc23)cc1C |  | inactive: -7.24%
Cc1ccc2sc(N(CCCN(C)C)C(=O)c3ccc(S(=O)(=O)N4CCCCCC4)cc3)nc2c1C | inconclusive: 44.7 µM [inhibitor, partial curve] | 
O=S(=O)(Nc1nnc(C2CC2)s1)c1ccccc1 |  | inactive: -13.2%
CCc1cccc(NS(=O)(=O)c2csc(C(N)=O)c2)c1 |  | inactive: -18.3%
Cc1cccc(N=c2c([N+](=O)[O-])nn(-c3ccc(Cl)cc3)n2O)c1 | active: 10 µM | 
COC(=O)C1CCN(CC(=O)Nc2sc3c(c2C#N)CCC3)CC1 | inconclusive: 79.4 µM [inhibitor, single point] | 
C=CCNC(N)=S | inconclusive: 89.1 µM [inhibitor, single point] | 
Cc1cccc(/C=N/n2c(-c3ccccc3)n[nH]c2=S)c1O | inconclusive: 79.4 µM [inhibitor, single point] | 
CCOc1ccc(/C=N/NC(=O)Cc2csc(Nc3cccc(C(F)(F)F)c3)n2)c(OCC)c1 | inconclusive: 79.4 µM [inhibitor, partial curve, poor fit] | 
Cc1cccc(C)c1-n1c(C)cc(/C=N/NC(=O)CSc2ncccn2)c1C | active: 44.7 µM | 
CC(C)C[C@H](NC(=O)[C@@H]1Cc2ccccc2CN1)C(=O)Nc1ccc(C(C)C)cc1 | inconclusive: 70.8 µM [inhibitor, single point] | 
Cc1oc(-c2ccc3c(c2)OCCO3)cc1C(=O)NC(Cc1ccccc1)C(=O)O (configuration not stated) | inconclusive: 79.4 µM [inhibitor, single point] | 
Cc1nc(N)c(Cc2ccccc2F)c(N)n1 | inconclusive: 89.1 µM [inhibitor, single point] | 
Cc1ccc(-c2csc(N3CCC[C@@H]3C(=O)NCCn3c(C(F)(F)F)nc4ccccc43)n2)cc1 | inconclusive: 44.7 µM [inhibitor, partial curve] | 
O=C(O)CCCNc1n[nH]c(=O)[nH]c1=O | inconclusive: 89.1 µM [inhibitor, single point] | 
Cn1ccc(O)c(C#N)c1=O |  | inactive: 19.7%
Cc1noc(Cn2c(=O)c3cc4c(cc3n(CC(=O)Nc3cccc(Cl)c3)c2=O)OCO4)n1 |  | inactive: -3.28%
CC(=O)NC12CC3CC(C1)CC(C(=O)N(C)Cc1cccc(Cl)c1Cl)(C3)C2 | inconclusive: 35.5 µM [inhibitor, partial curve] | 
Cc1ccc(CNC(=O)c2ccc3c(c2)N(Cc2ccccc2F)C(=O)c2ccccc2S3(=O)=O)cc1 |  | inactive: -7.53%
O=S(=O)(c1ccc2ccccc2c1)n1nc(-c2ccco2)nc1NCc1cccc(Cl)c1 | inconclusive: 79.4 µM [inhibitor, single point] | 

Compound | Potency | activity change, negative = inhibition
Cc1ccc(C(=O)C2=C(O)C(=O)N(Cc3cccnc3)C2c2ccc(OC(C)C)cc2)o1 (configuration not stated) | inconclusive: 79.4 µM [inhibitor, single point] | 
CCCOc1ccc(-c2c(C(=O)N/N=C/C3CC=CCC3)nnn2-c2nonc2N)cc1 (configuration not stated) |  | inactive: -24.7%
CCOC(=O)c1c(NC(=O)COC(=O)CNC(=O)c2ccco2)sc(C(C)=O)c1C | inconclusive: 89.1 µM [inhibitor, single point] | 
O=C(c1ccc(-c2ccccc2)c(F)c1)C1CCCN(CCCn2cccn2)C1 (configuration not stated) | inconclusive: 79.4 µM [inhibitor, single point] | 
Oc1c(I)cc(Cl)c2cccnc12 | active: 39.8 µM | 
Cc1cc(O)c(/C=N/c2ccccn2)c(=O)o1 | inconclusive: 79.4 µM [inhibitor, single point] | 
CC(C)(C)c1cc(-c2n[nH]c(=S)n2-c2ccccc2F)n[nH]1 |  | inactive: -30%
Cc1cc2c(cc1S(=O)(=O)N1CCC(C)CC1)OCC(=O)N2 | inconclusive: 79.4 µM [inhibitor, single point] | 
Cc1ccc(NC(=O)CC2OC(=O)c3ccccc32)cc1S(=O)(=O)N1CCOCC1 (configuration not stated) |  | inactive: 11.8%
Cc1c(C(=O)NCc2ccc(N(C)C)cc2)oc2c1-c1nn(Cc3cccc(Cl)c3)cc1CC2 |  | inactive: -17.5%
O=[N+]([O-])c1ccccc1OCCOCCOc1cccc2cccnc12 | active: 31.6 µM | 
O=C(COC(=O)c1ccc2c(c1)OCO2)Nc1ncc(Cl)cc1Cl |  | inactive: -4.3%
CSc1nccc(-c2nn(-c3ccc(C)cc3)ccc2=O)n1 | active: 25.1 µM | 
COc1cccc(NC(=O)CSc2nccn2-c2cccc(OC)c2)c1 | inconclusive: 39.8 µM [inhibitor, partial curve] | 
O=C(CSc1cn(CC(=O)N2CCCCCC2)c2ccccc12)Nc1ccccc1F |  | inactive: -17%
CC(C)(C)C1CCC(C(=O)Nc2ccccc2N2CCOCC2)CC1 (configuration not stated) |  | inactive: -3.85%
CNC(=O)NC(=S)NC(=O)c1cccc(Cl)c1 | inconclusive: 89.1 µM [inhibitor, single point] | 
O=C(NCC1CCCO1)C(c1cccs1)N(Cc1ccccc1Cl)C(=O)c1ccc(-c2ccccc2)[nH]1 (configuration not stated) | inconclusive: 39.8 µM [inhibitor, full curve, poor fit] | 
Cc1cc(C(F)(F)F)n(-c2nc(C(=O)N/N=C/c3ccc(F)cc3)cs2)n1 | inconclusive: 44.7 µM [inhibitor, partial curve, poor fit] | 
COc1ccc(N2CCN(C(CNS(=O)(=O)c3ccc4c(c3)OCCO4)c3ccco3)CC2)cc1 (configuration not stated) | inconclusive: 50.1 µM [inhibitor, partial curve, poor fit] | 
COc1ccc(-c2nnc(NC(=O)CSc3ccc(C)cc3)s2)cc1OC | inconclusive: 89.1 µM [inhibitor, single point] | 
COc1cc(NC(=O)CSc2nncn2C)c(C)cc1[N+](=O)[O-] |  | inactive: -4.14%
COc1cc(/C=N/NC(=O)Cc2ccccc2)cc([N+](=O)[O-])c1O |  | inactive: -34.1%
COc1ccccc1/C=C1\SC(=O)N(CCC(=O)N2CCCCC2CCO)C1=O (configuration not stated) | inconclusive: 44.7 µM [inhibitor, partial curve] | 
